Reference: PubChem BioAssay AID360 (National Center for Advancing Translational Sciences (NCATS), 2006)
Out of some 48,000 compounds screened, about 550 (1.1%) were called active. Inconclusive results (about 4%) are left out. Cut-off read from the data, not from the text of the source: active = potency below about 15 µM; inconclusive = mostly about 16 µM to 33 µM; inactive = weaker than that. Some of the results follow.

Molecular target: Lysosomal acid glucosylceramidase (Homo sapiens) (UniProt P04062)
Sequence of UniProt P04062 (P04062 whole entry, looked up): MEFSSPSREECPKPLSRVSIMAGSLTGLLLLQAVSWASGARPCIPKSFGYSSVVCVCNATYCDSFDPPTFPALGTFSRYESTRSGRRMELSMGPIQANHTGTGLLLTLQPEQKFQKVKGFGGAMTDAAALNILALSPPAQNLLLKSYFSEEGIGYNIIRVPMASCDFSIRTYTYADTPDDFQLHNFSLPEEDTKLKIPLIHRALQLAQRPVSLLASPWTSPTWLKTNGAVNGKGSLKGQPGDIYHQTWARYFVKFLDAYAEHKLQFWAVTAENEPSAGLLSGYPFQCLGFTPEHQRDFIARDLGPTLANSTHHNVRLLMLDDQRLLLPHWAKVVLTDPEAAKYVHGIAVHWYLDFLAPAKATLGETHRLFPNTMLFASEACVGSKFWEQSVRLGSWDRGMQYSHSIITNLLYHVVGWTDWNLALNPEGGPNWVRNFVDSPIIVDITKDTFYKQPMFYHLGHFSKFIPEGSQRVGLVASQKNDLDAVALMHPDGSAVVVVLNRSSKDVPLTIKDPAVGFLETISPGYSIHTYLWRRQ
Test: Glucocerebrosidase;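 note: the screen sought inhibitors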
Details: purified enzyme, resorufin glucoside fluorescence (screen aimed at inhibitors), 20 min
How it was run: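 Compounds titrated against 0.2 nM normal enzyme, 30 uM resorufin beta-D-glucopyranoside substrate, citrate/phosphate buffer with taurocholate and tween-20, pH 5.9. Reaction ran 20 min at room temperature; fluorescence (Ex 548/Em 600) gave AC50.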
Potency is the fitted concentration of half-maximal effect.

Potency, inactive:
O=C(CCc1nc(-c2ccccc2F)no1)NCCN1CCOCC1 > 76.9 µM
COCCCn1cnc2oc3nc4ccccc4nc3c2c1=O > 76.9 µM
CCOC(=O)c1sc(NC(=O)c2cc3c(C)nn(-c4ccccc4)c3s2)nc1C > 76.9 µM
COC(=O)Cn1cnc2c(nnn2-c2ccc(C)cc2)c1=O > 76.9 µM
COc1ccccc1-c1cn(S(=O)(=O)c2ccc(F)cc2)nc1N > 76.9 µM
Cn1cc(CNC(=O)C2c3ccccc3Oc3ccccc32)cn1 > 76.9 µM
COC(=O)c1ccc(OCc2nc(N)nc(N3CCOCC3)n2)cc1 > 76.9 µM
C(=N\n1cncn1)/c1ccc(N2CCOCC2)cc1 > 76.9 µM
CCOC(=O)C1Cc2ccccc2CN1 (stereo not given) > 76.9 µM
CC(C)OCCCNc1ncnc2c1[nH]c1ccccc12 > 76.9 µM
CCOC(=O)CSc1nc2cc3c(cc2cc1C#N)OCO3 > 76.9 µM
O=C(CSCSCC(=O)NCC1CCCO1)NCC1CCCO1 (stereo not given) > 76.9 µM
Cn1c(=O)c2c(ncn2CC(=O)Nc2ccccc2Sc2ccccc2)n(C)c1=O > 76.9 µM
Cc1cc(/N=C/C=C2\N(C)c3ccccc3C2(C)C)n(CCC#N)n1 > 76.9 µM
Cc1nn2c3c(cnc2c1-c1ccccc1)C(=O)CC(C)C3 (stereo not given) > 76.9 µM
COc1ccccc1CNC(=O)C1CCN(c2nc3ccccc3o2)CC1 > 76.9 µM
O=C(CCCn1c(SCC(=O)c2ccc(F)cc2)nc2ccccc2c1=O)NCc1ccco1 > 76.9 µM
CC(=O)OC(Cn1ccnc1)c1ccccc1 (stereo not given) > 76.9 µM
O=C1CCC(=O)N1CNc1ccc(Oc2ccccc2)cc1 > 76.9 µM
C=CC(=C)CC(NC)c1ccccc1 (stereo not given) > 76.9 µM
c1ccc(-n2nnnc2Oc2ccc(-n3ccnc3)cc2)cc1
COc1ccc2c(c1)c1ncnc(N3CCN(Cc4ccc5c(c4)OCO5)CC3)c1n2C
Cc1ccc(CNC(=O)CSc2nc(N3CCCCC3)nc(N3CCCCC3)n2)cc1 > 76.9 µM
CN(C)Cc1c(O)ccc2occ(C(=O)c3ccccc3)c12 > 76.9 µM
CC1CCN(C(=O)C2CC(c3ccc(F)cc3)=NO2)CC1 (stereo not given) > 76.9 µM
Cc1ccc2c(c1)N(CC(=O)N1CCCCC1c1cccnc1)C(=O)CO2 (stereo not given) > 76.9 µM
Nc1nc(CSc2nc3ccccc3s2)nc(N2CCCCC2)n1 > 76.9 µM
CN1C(=O)NC(NC(=O)C2CCCCC2)(C(F)(F)F)C1=O (stereo not given) > 76.9 µM
COc1ccc(C2C(C(=O)Nc3cc(C)on3)c3ccccc3C(=O)N2C)cc1OC (stereo not given) > 76.9 µM
O=C1c2ccccc2S(=O)(=O)N1Cc1cc(=O)n2ccsc2n1 > 76.9 µM
O=C(NCCN1CCOCC1)c1cc2ccccc2o1 > 76.9 µM
CS(=O)(=O)N1CCC(C(=O)Nc2ccc(F)cc2F)CC1 > 76.9 µM
CN1/C(=C/C(=O)c2nc(S(C)(=O)=O)ncc2Cl)C(C)(C)c2ccccc21 > 76.9 µM
COc1ccc(CNC(=O)C2CC(c3ccc(F)cc3)=NO2)cc1 (stereo not given) > 76.9 µM
O=C(CCNS(=O)(=O)c1ccc(Cl)cc1)N1CCC2(O)CCCCC2C1 (stereo not given) > 76.9 µM
CN(CC(=O)NCCc1ccccc1)S(=O)(=O)c1cccs1 > 76.9 µM
CCCOc1ccc(-c2nnc(-c3ccncc3)o2)cc1 > 76.9 µM
COc1ccc(-n2nc3c(c2NC(=O)C2CC2)CS(=O)C3)cc1 (stereo not given) > 76.9 µM
CCOC(=O)N1CCN(C(=O)c2cc(S(=O)(=O)N3CCCC3)cn2C)CC1 > 76.9 µM
COc1ccc(N2CC(C(=O)Nc3ccc(N4CCOCC4)cc3)CC2=O)cc1 (stereo not given) > 76.9 µM
O=C(c1ccc(S(=O)(=O)N2CCOCC2)cc1)N1CCN(c2ccccc2F)CC1 > 76.9 µM
CCOC(=O)C1=C(C)NC(C)=C(C(=O)OCC)C1C(=O)OCC(=O)c1ccc2c(c1)OCCO2 > 76.9 µM
CN(CCOc1ccc(Cl)cc1)c1ccc(S(=O)(=O)N2CCCCC2)cn1 > 76.9 µM
CCn1c(SCC(=O)N2CCN(c3ccc(F)cc3)CC2)nnc1-c1ccncc1 > 76.9 µM
Cc1noc(C)c1S(=O)(=O)NCCCN1CCN(Cc2ccccc2)CC1 > 76.9 µM
O=C(O)c1ccccc1C(=O)Nc1ccccn1 > 76.9 µM
COc1cc(OC)cc(-c2nnc(SCC(=O)N3CCCC3)o2)c1 > 76.9 µM
CC(CNS(=O)(=O)c1cc(Cl)ccc1Cl)CN(C)C (stereo not given) > 76.9 µM
Cc1cccc(C)c1NC(=O)Nc1cccs1 > 76.9 µM
Cn1cc(/C(Cc2ccccc2)=N\O)c2ccccc21 > 76.9 µM
Cc1cc(C(F)(F)F)c2c(=O)[nH]c(=O)n(Cc3ccccc3)c2n1 > 76.9 µM
Nc1ccc(-c2nnc(-c3ccc(-c4ccccc4)cc3)o2)cc1 > 76.9 µM
O=C1CC(N2CCN(C/C=C/c3ccccc3)CC2)C(=O)N1Cc1cccs1 (stereo not given) > 76.9 µM
COc1cc2[nH]c(=O)n(CCC(=O)NC3CCN(Cc4ccccc4)CC3)c(=O)c2cc1OC > 76.9 µM
Cc1cc(C)nc(SCC(=O)O)n1 > 76.9 µM
O=C(NCc1ccncc1)c1cnccn1 > 76.9 µM
NCCCCCc1nnc(SCC(=O)c2ccc(Cl)cc2)o1 > 76.9 µM
O=C(Cn1c(CN2CCCCC2)nc2ccccc2c1=O)NC1CCCCC1 > 76.9 µM
COc1cccc(N(C(=O)c2cccs2)c2nc3ccccc3s2)c1 > 76.9 µM
Cc1cccc(NC(=O)c2cc(NC(=O)C3CCCCC3C(=O)O)ccc2N2CCCCC2)c1 (stereo not given)
COC(=O)c1[nH]c2ccc(C)cc2c1NC(=O)CN1CCc2cc(OC)c(OC)cc2C1 > 76.9 µM
N#CCCCSc1nnc(CSc2nc3ccccc3s2)n1-c1ccccc1 > 76.9 µM
COc1ccc2[nH]c(=O)c(CN(Cc3ccc(C)cc3)Cc3nnnn3CC3CCCO3)cc2c1 (stereo not given) > 76.9 µM
COc1ccc(N(Cc2ccco2)C(=O)c2ccccc2F)cc1OC > 76.9 µM
CCCCn1c(-c2cc(Cl)ccc2OC)n[nH]c1=S > 76.9 µM
COc1ccc(Cl)cc1C(=O)Nc1nnn(C)n1 > 76.9 µM
CCCc1cc(C(=O)N2CCN(c3ccccc3C)CC2)cs1 > 76.9 µM
COc1cc(NC(=O)C(C)Oc2ccccc2)c(C(=O)O)cc1OC (stereo not given) > 76.9 µM
CCOC(=O)c1[nH]c2cc(OC)c(OC)cc2c1NC(=O)CN1CCN(C)CC1 > 76.9 µM
Cn1c(N2CCC(C(N)=O)CC2)nc2c1c(=O)n(Cc1ccc(Cl)cc1)c(=O)n2C > 76.9 µM
CCC1(CC)C(=O)N=C2c3ccccc3C(=O)N21 > 76.9 µM
CCOC(=O)N1CCN(C(=O)CC(C(=O)N2CCc3ccccc32)n2ccnc2)CC1 (stereo not given) > 76.9 µM
Cc1c(C(=O)OCC(=O)N(CCC#N)c2ccccc2)oc2c1ccc1ccccc12 > 76.9 µM
CCOC(=O)C(NC(C)=O)(NS(=O)(=O)c1ccccc1)C(F)(F)F (stereo not given) > 76.9 µM
Cn1c(=O)[nH]c(=O)c2c1nc(CN1CCN(c3cccc(Cl)c3)CC1)n2CCN1CCOCC1 > 76.9 µM
Cn1c(CSCc2ccccc2Cl)nnc1SCC(=O)Nc1nccs1 > 76.9 µM
CCn1cc(C(=O)NCC2CCCO2)c(=O)c2cc(S(=O)(=O)N3CCC(C)CC3)ccc21 (stereo not given) > 76.9 µM
Cc1cccc(NS(=O)(=O)c2ccc(Oc3ccccc3)cc2)n1 > 76.9 µM
CCOC(=O)C1=C(C)Nc2ccccc2N=C1NC(=O)c1cccc(S(=O)(=O)N(C)C)c1 > 76.9 µM
Cc1cc(-n2[nH]c(C)c(C)c2=O)nc(-c2ccccc2O)n1 > 76.9 µM
Cc1cc(NC(=O)C(C)C)ncc1NC(=O)c1cccc(F)c1 > 76.9 µM
COC(=O)C(C)Sc1nc2c(c(=O)[nH]c(=O)n2C)n1CCCc1ccccc1 (stereo not given) > 76.9 µM
Cc1cc2c(c(=O)n1C1CC1)C(c1cccc(Cl)c1)C(C#N)=C(N)O2 (stereo not given) > 76.9 µM
O=C(N1CCOCC1)N(Cc1cccs1)C1CCCC1 > 76.9 µM
COc1ccccc1N(CC(=O)NC1CCCCC1)C(=O)CCC(=O)Nc1ccccn1 > 76.9 µM
COc1ccccc1NC(=O)CSc1nnc(C)o1 > 76.9 µM
CC(=O)N1CCc2cc(S(=O)(=O)NCCCOC(C)C)ccc21 > 76.9 µM
COc1ccccc1C1c2c(oc3ccc(Cl)cc3c2=O)C(=O)N1c1cc(C)on1 (stereo not given) > 76.9 µM
COc1cccc(N2CCN(CC(=O)c3c[nH]c4ccc(OC)cc34)CC2C)c1 (stereo not given) > 76.9 µM
Cn1c(=O)c2c(ncn2CC(=O)Nc2ccc(Cl)cc2Cl)n(C)c1=O > 76.9 µM
